Source: patent US20100074867A1, “P1-NONEPIMERIZABLE KETOAMIDE INHIBITORS OF HCV NS3 PROTEASE” (Schering Corporation Patent Department, K-6-1; 1990, priority 2007, published 2010)

target: HCV NS3/NS4A protease (strain 1a) (Hepatitis C virus genotype 1a, UniProt P27958); assay: HCV continuous spectrophotometric protease assay; assay type: biochemical; conditions: ranges of Ki* values in nM, read-out: Ki*
From the text: Spectrophotometric Assay Spectrophotometric assay for the HCV serine protease can be performed on the inventive compounds by following the procedure described by R. Zhang et al, Analytical Biochemistry, 270 (1999) 268-275, the disclosure of which, is incorporated herein by reference. The assay based on the proteolysis of chromogenic ester substrates is suitable for the continuous monitoring of HCV NS3 protease activity. The substrates are derived from the P side of the NS5A-NS5B junction sequence (Ac-DTEDVVX(Nva), where X=A or P) whose C-terminal carboxyl groups are esterified with one of four different chromophoric alcohols (3- or 4-nitrophenol, 7-hydroxy-4-methyl-coumarin, or 4-phenylazophenol). Illustrated below are the synthesis, characterization and application of these novel spectrophotometric ester substrates to high throughput screening and detailed kinetic evaluation of HCV NS3 protease inhibitors.
• Materials: Chemical reagents for assay related buffers are obtained from Sigma Chemical Company (St. Louis, Mo.). Reagents for peptide synthesis were from Aldrich Chemicals, Novabiochem (San Diego, Calif.), Applied Biosystems (Foster City, Calif.) and Perseptive Biosystems (Framingham, Mass.). Peptides are synthesized manually or on an automated ABI model 431A synthesizer (from Applied Biosystems). UV/VIS Spectrometer model LAMBDA 12 was from Perkin Elmer (Norwalk, Conn.) and 96-well UV plates were obtained from Corning (Corning, N.Y.). The prewarming block can be from USA Scientific (Ocala, Fla.) and the 96-well plate vortexer is from Labline Instruments (Melrose Park, Ill.). A Spectramax Plus microtiter plate reader with monochrometer is obtained from Molecular Devices (Sunnyvale, Calif.). […] Protein concentrations are determined by the Biorad dye method using recombinant HCV protease standards previously quantified by amino acid analysis. Prior to assay initiation, the enzyme storage buffer (50 mM sodium phosphate pH 8.0, 300 mM NaCl, 10% glycerol, 0.05% lauryl maltoside and 10 mM DTT) is exchanged for the assay buffer (25 mM MOPS pH 6.5, 300 mM NaCl, 10% glycerol, 0.05% lauryl maltoside, 5 μM EDTA and 5 μM DTT) utilizing a Biorad Bio-Spin P-6 prepacked column. Substrate Synthesis and Purification: The synthesis of the substrates is done as reported by R. Zhang et al, (ibid.) and is initiated by anchoring Fmoc-Nva-OH to 2-chlorotrityl chloride resin using a standard protocol (K. Barlos et al, Int. J. Pept. Protein Res., 37 (1991), 513-520). The peptides are subsequently assembled, using Fmoc chemistry, either manually or on an automatic ABI model 431 peptide synthesizer. […] The combined filtrate and DCM wash is evaporated azeotropically (or repeatedly extracted by aqueous Na2CO3 solution) to remove the acid used in cleavage. The DCM phase is dried over Na2SO4 and evaporated.
The ester substrates are assembled using standard acid-alcohol coupling procedures (K. Holmber et al, Acta Chem. Scand., B33 (1979) 410-412). Peptide fragments are dissolved in anhydrous pyridine (30-60 mg/ml) to which 10 molar equivalents of chromophore and a catalytic amount (0.1 eq.) of para-toluenesulfonic acid (pTSA) were added. Dicyclohexylcarbodiimide (DCC, 3 eq.) is added to initiate the coupling reactions. Product formation is monitored by HPLC and can be found to be complete following 12-72 hour reaction at room temperature. Pyridine solvent is evaporated under vacuum and further removed by azeotropic evaporation with toluene. The peptide ester is deprotected with 95% TFA in DCM for two hours and extracted three times with anhydrous ethyl ether to remove excess chromophore. The deprotected substrate is purified by reversed phase HPLC on a C3 or C8 column with a 30% to 60% acetonitrile gradient (using six column volumes).

Compound | Ki [nM]
CCC[C@H]1C[C@@]1(NC(=O)[C@@H]1[C@@H]2[C@H](CN1C(=O)[C@@H](NC(=O)NC1(CS(=O)(=O)C(C)(C)C)CCCCC1)C(C)(C)C)C2(C)C)C(=O)C(=O)NC1CC1 [13Z] | 500 to 1000
C[C@H]1C[C@]1(NC(=O)[C@@H]1[C@@H]2[C@H](CN1C(=O)[C@@H](NC(=O)N[C@H](CN1C(=O)CC(C)(C)CC1=O)C(C)(C)C)C(C)(C)C)C2(C)C)C(=O)C(=O)NC1CC1 [32Z] | < 500
CC[C@H]1C[C@]1(NC(=O)[C@@H]1[C@@H]2[C@H](CN1C(=O)[C@@H](NC(=O)NC(C)(C)C)C(C)(C)C)C2(C)C)C(=O)C(N)=O (racemic) [7Z] | 1000 to 5000
CC[C@H]1C[C@]1(NC(=O)[C@@H]1[C@@H]2[C@H](CN1C(=O)[C@@H](NC(=O)N[C@H](CN1C(=O)CC(C)(C)CC1=O)C(C)(C)C)C1(C)CCCCC1)C2(C)C)C(=O)C(=O)NCC1CC1 [76Z] | < 500
CC[C@H]1C[C@]1(NC(=O)[C@@H]1[C@@H]2[C@H](CN1C(=O)[C@@H](NC(=O)NC1([C@H](C)S(=O)(=O)C(C)(C)C)CCCCC1)C1(C)CCCCC1)C2(C)C)C(=O)C(=O)NCC1CC1 [69Z] | 500 to 1000
CC[C@H]1C[C@]1(NC(=O)[C@@H]1[C@@H]2[C@H](CN1C(=O)[C@@H](NC(=O)NC1(CS(=O)(=O)C(C)(C)C)CCCCC1)C(C)(C)C)C2(C)C)C(=O)C(N)=O (racemic) [3Z] | < 500
CC[C@@H]1C[C@@]1(NC(=O)[C@@H]1[C@@H]2[C@H](CN1C(=O)[C@@H](NC(=O)N[C@H](CN1C(=O)CC(C)(C)CC1=O)C(C)(C)C)C(C)(C)C)C2(C)C)C(=O)C(=O)NCC1CC1 [54Z] | 1000 to 5000
CCC[C@@H]1C[C@@]1(NC(=O)[C@@H]1[C@@H]2[C@H](CN1C(=O)[C@@H](NC(=O)NC1(C3CCCS3(=O)=O)CCCCC1)C(C)(C)C)C2(C)C)C(=O)C(=O)NC1CC1 (stereo partly shown) [26Z] | 5000 to 10000
CC[C@@H]1C[C@@]1(NC(=O)[C@@H]1[C@@H]2[C@H](CN1C(=O)[C@@H](NC(=O)N[C@H](CN1C(=O)CC(C)(C)CC1=O)C(C)(C)C)C1(C)CCCCC1)C2(C)C)C(=O)C(=O)NCC1CC1 [77Z] | 5000 to 10000
CCNC(=O)C(=O)[C@@]1(NC(=O)[C@@H]2[C@@H]3[C@H](CN2C(=O)[C@@H](NC(=O)NC2(CS(=O)(=O)C(C)(C)C)CCCCC2)C(C)(C)C)C3(C)C)C[C@@H]1CC [49Z] | < 500
CCNC(=O)C(=O)[C@]1(NC(=O)[C@@H]2[C@@H]3[C@H](CN2C(=O)[C@@H](NC(=O)N[C@H](CN2C(=O)CC(C)(C)CC2=O)C(C)(C)C)C2(C)CCCCC2)C3(C)C)C[C@H]1CC [75Z] | 1000 to 5000
CC[C@H]1C[C@]1(NC(=O)[C@@H]1[C@@H]2[C@H](CN1C(=O)[C@@H](NC(=O)N[C@H](CN1C(=O)CC(C)(C)CC1=O)C(C)(C)C)C(C)(C)C)C2(C)C)C(=O)C(N)=O [11Z] | < 500
CC[C@H]1C[C@]1(NC(=O)[C@@H]1[C@@H]2[C@H](CN1C(=O)[C@@H](NC(=O)NC1(CS(=O)(=O)C(C)(C)C)CCCCC1)C(C)(C)C)C2(C)C)C(=O)C(=O)NC1CC1 [87Z] | < 500
CC[C@H]1C[C@]1(NC(=O)[C@@H]1[C@@H]2[C@H](CN1C(=O)[C@@H](NC(=O)NC1([C@@H](C)S(=O)(=O)C(C)(C)C)CCCCC1)C(C)(C)C)C2(C)C)C(=O)C(=O)NCC1CC1 [59Z] | < 500
CCNC(=O)C(=O)[C@]1(NC(=O)[C@@H]2[C@@H]3[C@H](CN2C(=O)[C@@H](NC(=O)NC2(CS(=O)(=O)C(C)(C)C)CCCCC2)C(C)(C)C)C3(C)C)C[C@H]1CC [50Z] | 1000 to 5000
CC[C@H]1C[C@]1(NC(=O)[C@@H]1[C@@H]2[C@H](CN1C(=O)[C@@H](NC(=O)N[C@H](CN1C(=O)CC(C)(C)CC1=O)C(C)(C)C)C1(C)CCCCC1)C2(C)C)C(=O)C(=O)NC1CC1 [78Z] | < 500
CCNC(=O)C(=O)[C@@]1(NC(=O)[C@@H]2[C@@H]3[C@H](CN2C(=O)[C@@H](NC(=O)N[C@H](CN2C(=O)CC(C)(C)CC2=O)C(C)(C)C)C2(C)CCCCC2)C3(C)C)C[C@@H]1CC [74Z] | < 500

Compound | Ki [nM]
CC[C@H]1C[C@]1(NC(=O)[C@@H]1[C@@H]2[C@H](CN1C(=O)[C@@H](NC(=O)N[C@H](CN(C)S(C)(=O)=O)C(C)(C)C)C(C)(C)C)C2(C)C)C(=O)C(=O)NC1CC1 [86Z] | < 500
CC[C@@H]1CC1(NC(=O)[C@@H]1[C@@H]2[C@H](CN1C(=O)[C@@H](NC(=O)NC1([C@@H](C)S(=O)(=O)C(C)(C)C)CCCCC1)C1(C)CCCCC1)C2(C)C)C(=O)C(=O)NC1CC1 (stereo partly shown) [21Z] | 1000 to 5000
CCC1C[C@]1(NC(=O)[C@@H]1[C@@H]2[C@H](CN1C(=O)[C@@H](NC(=O)NC1([C@@H](C)S(=O)(=O)C(C)(C)C)CCCCC1)C1Cc3ccccc3C1)C2(C)C)C(=O)C(=O)NCC1CC1 (stereo partly shown) [39Z] | 1000 to 5000
CC[C@H]1CC1(NC(=O)[C@@H]1[C@@H]2[C@H](CN1C(=O)[C@@H](NC(=O)NC1([C@@H](C)S(=O)(=O)C(C)(C)C)CCCCC1)C1(C)CCCCC1)C2(C)C)C(=O)C(=O)NC1CC1 (stereo partly shown) [22Z] | < 500
CCNC(=O)C(=O)[C@]1(NC(=O)[C@@H]2[C@@H]3[C@H](CN2C(=O)[C@@H](NC(=O)N[C@H](CN2C(=O)CC(C)(C)CC2=O)C(C)(C)C)C(C)(C)C)C3(C)C)C[C@H]1CC [56Z] | < 500
CC[C@H]1C[C@]1(NC(=O)[C@@H]1[C@@H]2[C@H](CN1C(=O)[C@@H](NC(=O)N[C@H](CN1C(=O)CC(C)(C)CC1=O)C(C)(C)C)C1(C)CCCCC1)C2(C)C)C(=O)C(N)=O [28Z] | < 500
CC[C@@H]1C[C@@]1(NC(=O)[C@@H]1[C@@H]2[C@H](CN1C(=O)[C@@H](NC(=O)NC1(CS(=O)(=O)C(C)(C)C)CCCCC1)C(C)(C)C)C2(C)C)C(=O)C(=O)NC1CC1 [84Z] | 500 to 1000
CC[C@@H]1C[C@@]1(NC(=O)[C@@H]1[C@@H]2[C@H](CN1C(=O)[C@@H](NC(=O)NC1([C@H]3CCCS3(=O)=O)CCCCC1)C(C)(C)C)C2(C)C)C(=O)C(N)=O [83Z] | 1000 to 5000
CC[C@H]1C[C@]1(NC(=O)[C@@H]1[C@@H]2[C@H](CN1C(=O)[C@@H](NC(=O)NC1(CS(=O)(=O)C(C)(C)C)CCCCC1)C(C)(C)C)C2(C)C)C(=O)C(=O)NCC1CC1 [51Z] | 500 to 1000
CC[C@H]1C[C@]1(NC(=O)[C@@H]1[C@@H]2[C@H](CN1C(=O)[C@@H](NC(=O)N[C@H](CN1C(=O)CC(C)(C)CC1=O)C(C)(C)C)C(C)(C)C)C2(C)C)C(=O)C(=O)NC1CC1 [6Z] | 1000 to 5000
CCNC(=O)C(=O)[C@@]1(NC(=O)[C@@H]2[C@@H]3[C@H](CN2C(=O)[C@@H](NC(=O)NC2([C@@H](C)S(=O)(=O)C(C)(C)C)CCCCC2)C2Cc4ccccc4C2)C3(C)C)CC1CC (stereo partly shown) [36Z] | 1000 to 5000
CCNC(=O)C(=O)[C@@]1(NC(=O)[C@@H]2[C@@H]3[C@H](CN2C(=O)[C@@H](NC(=O)NC2([C@H](C)S(=O)(=O)C(C)(C)C)CCCCC2)C(C)(C)C)C3(C)C)C[C@@H]1CC [61Z] | < 500
CC[C@@H]1C[C@@]1(NC(=O)[C@@H]1[C@@H]2[C@H](CN1C(=O)[C@@H](NC(=O)NC1(CS(=O)(=O)C(C)(C)C)CCCCC1)C1CCCCC1)C2(C)C)C(=O)C(=O)NC1CC1 [44Z] | 1000 to 5000
C[C@@H]1C[C@@]1(NC(=O)[C@@H]1[C@@H]2[C@H](CN1C(=O)[C@@H](NC(=O)NC1(CS(=O)(=O)C(C)(C)C)CCCCC1)C(C)(C)C)C2(C)C)C(=O)C(=O)NC1CC1 [31Z] | > 10000
CCNC(=O)C(=O)[C@@]1(NC(=O)[C@@H]2[C@@H]3[C@H](CN2C(=O)[C@@H](NC(=O)NC2(CS(=O)(=O)C(C)(C)C)CCCCC2)C2CCCCC2)C3(C)C)C[C@@H]1CC [45Z] | < 500
CC[C@@H]1CC1(NC(=O)[C@@H]1[C@@H]2[C@H](CN1C(=O)[C@@H](NC(=O)NC1([C@@H](C)S(=O)(=O)C(C)(C)C)CCCCC1)C1(C)CCCCC1)C2(C)C)C(=O)C(N)=O (stereo partly shown) [23Z] | < 500
CC[C@@H]1C[C@@]1(NC(=O)[C@@H]1[C@@H]2[C@H](CN1C(=O)[C@@H](NC(=O)NC1([C@@H](C)S(=O)(=O)C(C)(C)C)CCCCC1)C(C)(C)C)C2(C)C)C(=O)C(=O)NCC1CC1 [60Z] | 500 to 1000
